# Test results: PubChem BioAssay AID504832 (National Center for Advancing Translational Sciences (NCATS), 2011)
# Out of some 310,000 compounds screened, about 18,000 (5.8%) were called active. Inconclusive results, whose numbers are uncertain, are shown with a selection of clear calls. Calls follow the shape of the dose curve; as a rule, active = well fitted inhibition curve with a large enough effect; inconclusive = small, poorly fitted or top-dose-only effect, or another doubt; inactive = no such curve, though single readings can be large or run the other way. No potency is given beside an inconclusive call; the fits are too rough.
# Assay: Primary qHTS for delayed death inhibitors of the malarial parasite plastid, 48 hour incubation
# Conditions: P. falciparum luciferase growth in erythrocytes; series mostly up to 28.7 µM
# Summary of the method: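 In quantitative HTS format, infected erythrocytes bearing luciferase-reporter parasites were treated for a single generation at 37 C. Luminescence after adding detection reagent served as the growth measure.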
# Potency is read from the fitted curve at half-maximal effect; tags tell the direction and shape of the fitted curve.
row,Compound,Potency
1,O=C(Cc1ccccc1F)Nc1cc(S(=O)(=O)N2CCCC2)ccc1Cl,"inconclusive [inhibitor, single point]"
2,COc1ccc(CCC(=O)OCc2csc(CC(=O)Nc3ccccc3C)n2)cc1,inactive
3,CCOC(=O)N1CCN(C(=O)CN(Cc2ccc(Cl)cc2)S(=O)(=O)c2ccccc2)CC1,active: 8.28 µM
4,CCCN1CCC(=O)N(CCOc2ccccc2)CC1,inactive
5,O=[N+]([O-])c1ccc(C[n+]2ccccc2)cc1,"inconclusive [inhibitor, single point]"
6,O=C(NCC1CCCO1)C1CCN(c2ccc(S(=O)(=O)N3CCCC3)cc2)CC1 (stereo not drawn),"inconclusive [inhibitor, partial curve]"
7,COc1ccc(OC)c(CN2CCN(C(=O)[C@@H](NC(=O)c3cccc(C)c3)C(C)C)CC2)c1,active: 10.4 µM
8,Cc1c(CC(=O)NCC(C)C)c(=O)oc2cc3c(cc12)CCC(C)(C)O3,"inconclusive [inhibitor, full curve, poor fit]"
9,Cc1ccc(C(=O)Nc2cc(C(C)C)c(O)c(C(C)C)c2)cc1,"inconclusive [inhibitor, single point]"
10,COc1ccc(-n2c(SCc3ccccn3)nc3c(c2=O)SCC3)cc1OC,"inconclusive [inhibitor, full curve, poor fit]"
11,O=CN1CCN(C(=S)NC(=O)c2ccc(Cl)cc2)CC1,inactive
12,CSc1ccccc1C(=O)N1CCCC(CCC(=O)NCc2ccc(F)c(F)c2)C1 (stereo not drawn),"inconclusive [inhibitor, partial curve, poor fit]"
13,COc1ccccc1NS(=O)(=O)c1cccc(C(=O)N2CCN(C(=O)c3ccco3)CC2)c1,"inconclusive [inhibitor, single point]"
14,COc1ccccc1Oc1ccc(-c2cnc3ccccc3n2)cc1[N+](=O)[O-],"inconclusive [inhibitor, single point]"
15,CCCC(C(=O)Nc1nccs1)c1ccccc1 (stereo not drawn),"inconclusive [inhibitor, partial curve]"
16,C=CCN(CC=C)C(=O)COC(=O)c1ccc(Sc2ncn[nH]2)c([N+](=O)[O-])c1,inactive
17,Cc1c(C(=O)N2CCCCC2)c(S(=O)(=O)Nc2cccc(Br)c2)c(C)n1C,"inconclusive [inhibitor, single point]"
18,CCN(CC)S(=O)(=O)c1ccc(OC(C)C)c(NC(=O)C2=COCCO2)c1,"inconclusive [inhibitor, partial curve, poor fit]"
19,COc1ccc(N2CCC(CNC(=S)Nc3cc(C)ccc3C)C2)cc1 (stereo not drawn),"inconclusive [inhibitor, partial curve]"
20,Cc1ccc(NC(=O)CC(=O)c2ccc([N+](=O)[O-])cc2)cc1S(=O)(=O)Nc1cccc(Cl)c1,"inconclusive [inhibitor, single point]"
21,COc1ccc(N2CCN(C(=O)c3ccc(CNS(=O)(=O)c4cccc(OC)c4)cc3)CC2)cc1,inactive
22,Cc1ccc(C(C(=O)NC(C)(C)C)N(Cc2ccco2)C(=O)Cn2nnc(-c3cccs3)n2)cc1 (stereo not drawn),active: 9.28 µM
23,Cc1ccc(/C=C2\SC(=S)N(CCCC(=O)Nc3ccc(O)cc3)C2=O)cc1,"inconclusive [inhibitor, partial curve, poor fit]"

row,Compound,Potency
1,CCCCC/C=C\C/C=C\C/C=C\C/C=C\CCCC(=O)O,"inconclusive [inhibitor, single point]"
2,COc1ccc(NC(=O)CCCN2C(=O)C(c3ccccc3)Oc3cccnc32)c(OC)c1 (stereo not drawn),"inconclusive [inhibitor, single point]"
3,CCOc1ccc(S(=O)(=O)Nc2cccc(C(=O)N3CCN(C(C)=O)CC3)c2)cc1,"inconclusive [inhibitor, partial curve]"
4,CC1CN(c2nc3c(c(=O)n(Cc4ccc(Cl)cc4)c(=O)n3C)n2C)CC(C)O1 (stereo not drawn),active: 5.86 µM
5,CCc1ccc(N2CC(C(=O)Nc3cccc(S(=O)(=O)N4CCCC4)c3)CC2=O)cc1 (stereo not drawn),"inconclusive [inhibitor, single point]"
6,Cc1onc(-c2c(Cl)cccc2Cl)c1C(=O)c1ccc(F)cc1,"inconclusive [inhibitor, single point]"
7,CCOC(=O)c1[nH]c(CN2CCN(c3ccc(OC)cc3)CC2)c(C(=O)OCC)c1C,active: 9.28 µM
8,CC12CCC(C(=O)O)(C/C1=N\O)C2(C)C (stereo not drawn),inactive
9,Cc1ccc(-c2c(CC(=O)O)c(C)nc3sc4c(c23)CCCC4)cc1,inactive
10,COc1ccccc1-c1nn2c(-c3ccc(C(C)(C)C)cc3)nnc2s1,"inconclusive [inhibitor, partial curve, poor fit]"
11,O=C(COC(=O)C12CC3CC(CC(Cl)(C3)C1)C2)Nc1ccc2[nH]c(=O)[nH]c2c1,"inconclusive [inhibitor, single point]"
12,CCC1CN(C(=O)N2CCC(C(=O)NCc3cccc(OC)c3OC)CC2)c2cc(C)ccc2O1 (stereo not drawn),inactive
13,COC(=O)C1=C(C)NC(=O)/C1=C\c1ccc2c(c1)OCO2,"inconclusive [inhibitor, partial curve, poor fit]"
14,CCN1CCN(CCNC(=O)c2ccc3c(c2)N(Cc2cccc(Cl)c2)C(=O)c2ccccc2S3=O)CC1 (stereo not drawn),active: 11.7 µM
15,Cc1ccc(-c2csc(NC(=O)C3=COCCO3)n2)cc1C,active: 10.4 µM
16,COc1nccnc1NS(=O)(=O)c1ccc(NCc2ccccc2O)cc1,inactive
17,CCOC(=O)c1[nH]c2ccc(OC)cc2c1NC(=O)NC(C)C,"inconclusive [inhibitor, full curve, poor fit]"
18,O=C(CN(C(=O)c1csnn1)c1ccccc1C(F)(F)F)NCc1ccccc1,inactive
19,CCN(CC)S(=O)(=O)c1cccc(C(=O)NCC2CCCCC2)c1,inactive
20,O=C(NC1CC2CCC1C2)c1ccco1 (stereo not drawn),"inconclusive [inhibitor, partial curve, poor fit]"
21,O=C(c1ccco1)N1CCCC(N2CCN(c3cccc(C(F)(F)F)c3)CC2)C1 (stereo not drawn),active: 10.4 µM
22,CCc1ccc(NC(=O)CCn2c(=O)c3cccn3c3ccccc32)cc1,"inconclusive [inhibitor, single point]"
23,CCOc1ccc(S(=O)(=O)NCCC(=O)NC(C)CCc2ccccc2)cc1 (stereo not drawn),"inconclusive [inhibitor, single point]"

row,Compound,Potency
1,O=C(CNC(=O)c1cccc(F)c1)N/N=C/c1cccnc1,inactive
2,CCO[C@@H]1OC(C(=O)N2CCN(Cc3ccc4c(c3)OCO4)CC2)=C[C@H](c2coc3ccccc3c2=O)[C@H]1CCCO,"inconclusive [inhibitor, full curve]"
3,CCOC(=O)c1c(O)c2ccccc2n(C)c1=O,inactive
4,COc1cc(C(F)(F)F)c(C(=O)N(C)Cc2ccc(Cl)c(Cl)c2)cn1,"inconclusive [inhibitor, single point]"
5,CC(C)(C)CC(=O)Nc1nnc(SCC(=O)Nc2ccccc2F)s1,"inconclusive [inhibitor, single point]"
6,Clc1ccc(OCCOCCNCc2ccccc2)cc1Cl,inactive
7,O=C(NC1CCN(Cc2ccccc2)C1)c1cccc(S(=O)(=O)N2CCOCC2)c1 (stereo not drawn),"inconclusive [inhibitor, partial curve, poor fit]"
8,Cc1cc(OCC(=O)Nc2ccncc2)ccc1[N+](=O)[O-],"inconclusive [inhibitor, partial curve, poor fit]"
9,COC(=O)C1=C(c2ccc(OC)c(OC)c2)C[C@@H]2CC[C@H]1N2C(=O)N1CCCCC1,"inconclusive [inhibitor, single point]"
10,CCOc1ccc(N(CC(=O)N2CCCCCC2)S(=O)(=O)c2ccc(F)cc2)cc1,inactive
11,C=C(C)COc1ccc(-c2nc(N)nc(C)c2-c2ccc(OC)cc2)c(O)c1,"inconclusive [inhibitor, single point]"
12,Cc1ccc(C)c(NC(=O)CSc2nnc(CSc3nc(C)cc(C)n3)n2Cc2ccco2)c1,"inconclusive [inhibitor, single point]"
13,CCC(c1nnnn1C1CCCC1)N1CCN(c2ccccc2)CC1 (stereo not drawn),inactive
14,O=C(NCCc1ccccn1)c1nc(Cn2cc([N+](=O)[O-])cn2)no1,inactive
15,O=C(CSCc1ccccc1)NCCc1ccc(F)cc1,"inconclusive [inhibitor, single point]"
16,CCN(CC)CCCNC(=O)c1ccc2c3n(nc2c1)-c1ccc(Cl)cc1CO3,"inconclusive [inhibitor, partial curve, poor fit]"
17,CN1CCN(/N=C/c2ccc(N(c3ccccc3)c3ccccc3)cc2)CC1,"inconclusive [inhibitor, single point]"
18,COc1ccc2[nH]c(=O)c(CN(Cc3cccs3)Cc3nnnn3Cc3ccccc3)cc2c1,"inconclusive [inhibitor, single point]"
19,N#CC(C#N)=NNc1ccc([N+](=O)[O-])cc1,"inconclusive [inhibitor, single point]"
20,CCCCC1=CC2=CC(=O)C(C)(OC(=O)CC)C(=O)C2=CN1CCc1ccc(Br)cc1 (stereo not drawn),active: 9.28 µM
21,Cc1cccc(NC(=O)COC(=O)CCCC2=NS(=O)(=O)c3ccccc3N2)c1,inactive
22,O=C(Cn1cc2c(n1)CCCC2)Nc1ccccc1Cl,"inconclusive [inhibitor, partial curve, poor fit]"
